Experimental data: the supplement of paper PMC11417369
± gives the standard deviation of the averaged measurements. The list shows a part of the results.

The sequences below were run on PfAP2-EXP AP2 domain (GST-tagged) (assay: gcPBM binding intensity (ln(normalized median fluorescence intensity)); higher = stronger DNA binding).
Outline: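 Using an Agilent 4 × 180k array, primer-extended double-stranded 36-bp intergenic genomic probes and negative controls were exposed for 1 h to GST-fused P. falciparum DNA-binding domains expressed in E. coli. Binding was carried out in 1× PBS with 1% milk, 0.2 mg/ml BSA, 0.5% salmon testes DNA and 0.03% Triton X-100, and protein was detected with Alexa488 anti-GST antibody and a 488 nm scan. Binding intensity is the highest Masliner-normalised natural-log median intensity across replicate spots of either probe orientation.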

| Sequence | gcPBM binding intensity (ln) |
| --- | --- |
| AATATATACGCATGCGCACACACAAGTGGGAAATTT [CACACA_site1786] | 9.38 ± 0.35 |
| TTTTGAGTAGCCTATTGTACGAACTTTTTAAATACA [XGTACX_site1224] | 8.38 ± 0.28 |
| CTATCTACATAAACGTGTACCCACAAATAAATAAAT [XGTACX_site5210] | 8.85 ± 0.12 |
| TTTTTTAAAAAAGTTTTCTGTATTTATATATATATA [CACACA_negctrl_site31] | 9.69 ± 0.12 |
| TTAACCTTTTGATATTGTACCCATAATCTAATACAA [XGTACX_site769] | 8.63 ± 0.38 |
| TCATATGTATAAATTAGTACATATTTAATGGATATA [XGTACX_site3298] | 8.39 ± 0.34 |
| AAATGAAAATAAAGCAACAGAAATATAATGTATTAT [GTGCAC_negctrl_site508] | 8.82 ± 0.41 |
| AAAATAATAACATTGTGTACATAAAAAGAAAACCTT [XGTACX_site840] | 8.7 ± 0.39 |
| ACATTTTATACGATAAAATGTATAAGATTATGAAGA [TGCATGCA_negctrl_site476] | 8.69 ± 0.35 |
| AGGCACGTGTTATATACACACATAATCAAATAAACT [CACACA_site7852] | 8.76 ± 0.56 |
| TTATGTCATAAATGCACACATATATATATACATATA [CACACA_site1588] | 8.69 ± 0.26 |
| TATGAATGGTTAAGTACACACATATTAATATATGTA [CACACA_site3490] | 8.49 ± 0.45 |
| TATATTTGGAAATATTCTCAATTGGTACAAATAAAA [CACACA_negctrl_site1202] | 8.56 ± 0.41 |
| GCCCAACCAAAATATACACACAGTTGAATGAATAAA [CACACA_site2597] | 8.56 ± 0.61 |
| TAAAAGAAATATACATGTACATAAATATATATATAT [XGTACX_site1276] | 9.86 ± 0.2 |
| TTGGTAATAATTTGAGGTACACTGTATAAATTTTTT [XGTACX_site909] | 8.4 ± 0.35 |
| ATTTTTTTGTGTTTGGTACACACGTTATAAAAAATA [CACACA_site1345] | 8.49 ± 0.33 |
| AATAATAAATTATGGTGTACGCATTTGTATATATAC [XGTACX_site5417] | 8.77 ± 0.28 |
| TTTTTTTCTTAAAGATGTACTTTTTTAAAATAATCT [XGTACX_site3663] | 8.54 ± 0.45 |
| GGAAAATACATTCCAGTGCATTAATTTATTCAACGT | 8.58 ± 0.14 |
| TTTTGGATCATTTGTTGTACATATGCAAAAAAAAAA [XGTACX_site3157] | 8.86 ± 0.47 |
| AAAAAAATAAAATTATATAAAATAAATTTTTATAAT [GTGCAC_negctrl_site587] | 7.75 ± 0.35 |
| TATGATACATAATATACATGCATACACAACATTCAG [TGCATGCA_site487] | 8.74 ± 0.28 |

| Sequence | gcPBM binding intensity (ln) |
| --- | --- |
| GATATGTGACGTTTGGTATTTTTGATGTTGGTAGGA [CACACA_negctrl_site1448] | 8.73 ± 0.46 |
| TTTATATATTATTAATGTACAAAATTTTTATTGCAT [XGTACX_site3329] | 8.7 ± 0.19 |
| AATTCTTTTTTCAACACACACACACTAGAAAATATA [CACACA_site5681] | 8.77 ± 0.53 |
| TAAATACAGAAACACACACACAAATATATACATACA [CACACA_site2880] | 8.75 ± 0.65 |
| ACCTGGACAAAAATAAATAAATAAATAAATAAATGA [GTGCAC_negctrl_site238] | 8.55 ± 0.59 |
| ACATTAAGACACATTGCACACGTGCACCCATAGAAA [CACACA_site8029] | 9.84 ± 1.1 |
| GGAATTATATGAAATAAACACACATATGTAATATTA [CACACA_site8586] | 8.51 ± 0.39 |
| TTTTTTTTTTTTTTGGTGCGTTTATATATAAATATA | 8.39 ± 0.28 |
| TACATCGACCTATGTACATGCAAATTATTTTTATTT [TGCATGCA_site182] | 8.86 ± 0.28 |
| AAAATCTAATATAATGCACACATAAAAAAAAAATCA [CACACA_site8871] | 8.79 ± 0.13 |
| CTTTTAATATGTGTAGTGCATTTTTTTTTTTTTTTT [GTGCAC_site9727] | 8.69 ± 0.042 |
| AAAAAAAAAAAAAACACACACAACACCCATACCTTA [CACACA_site3621] | 8.63 ± 0.36 |
| GTCCTTCATCATATTTAACACACAGAGAAAAAGCGG [CACACA_site7979] | 8.89 ± 0.43 |
| AATAATTGTTAAAGGTGTACAATACGTATGTAAGAA [XGTACX_site1328] | 9.12 ± 0.33 |
| AACAGATATATATGTAGTACATGTTCTAGATATTTT [XGTACX_site1208] | 8.51 ± 0.36 |
| AATATAAACATAGATAGATAAATAAATAAATAAACA [GTGCAC_negctrl_site567] | 8.68 ± 0.47 |
| AAAAAAAATAAAAATAAAAATAAAAATAAAAATAAA [GTGCAC_negctrl_site437] | 8.38 ± 0.35 |
| TATCATTTTGTATATAGTACATATATAAAATCGTTA [XGTACX_site3875] | 8.35 ± 0.29 |
| GGAATATTTATACATACACACATATATTTATTTATA [CACACA_site6883] | 8.52 ± 0.33 |
| AGTCATTAAATATAATGTACATGGAAAAACAGCTGA [XGTACX_site7944] | 9.01 ± 0.42 |
| ATAAAAATAACATATAAACACACATATATATATATA [CACACA_site9267] | 10 ± 0.19 |
| CAAGCACCCAGACACACACACACACCCACACCCACA [CACACA_site369] | 8.36 ± 0.3 |
| ATGTAGACATAATGGGGTACAAAAAAAAAAAAAAAA [XGTACX_site881] | 8.34 ± 0.4 |

| Sequence | gcPBM binding intensity (ln) |
| --- | --- |
| TTTTGTAGCAAAAAATAGGAAAAAAAAAAATTAAAT [GTGCAC_negctrl_site8] | 8.53 ± 0.4 |
| ATATAATTACCATATGGTACACACATATATATATGT [XGTACX_site7393] | 9.2 ± 0.37 |
| ATATTACCCATATATGCACACATTGTAGTTATTTAT [CACACA_site2636] | 9.01 ± 0.36 |
| TTAAGATACAAAAAAGTGCATATTTTTTAACAAAAA | 8.54 ± 0.32 |
| GATATATAAATAGATACACACATACATACATACATA [CACACA_site6260] | 8.75 ± 0.62 |
| ATATCGTGTGCATTAACACACATTTATTTGAATAAA [CACACA_site7162] | 8.47 ± 0.28 |
| CACATACCCATACAAACACACATTATATATATATAT [CACACA_site4965] | 9.96 ± 0.23 |
| AAAAAAAAAAAAAAAACACACATAAATAGCTCAAAT [CACACA_site3973] | 8.69 ± 0.2 |
| TACGATTAAAAAAAATGTACAGATTTTTATAGAATA [XGTACX_site6561] | 8.35 ± 0.34 |
| GACAAATTATTGTGTACACAATATTATTATATATAC [CACACA_site6020] | 8.87 ± 0.16 |
| ACAAATAAAAATATTACACACACTATTCTAGTGATA [CACACA_site6812] | 7.99 ± 0.28 |
| TAAATATATATAATTACACACTTTTCTATAATATGA [CACACA_site711] | 8.22 ± 0.39 |
| CTTATGTTTTTTAAGTGTACATATTATACGTATTAT [XGTACX_site1176] | 8.86 ± 0.28 |
| TTAAGATATATAAAGAGTACACATAAGAGTAATGCT [XGTACX_site58] | 8.52 ± 0.4 |
| TATAATACATTATATTGTACTATATTATAATAAATT [XGTACX_site5934] | 8.12 ± 0.43 |
| TTTTTTTCTTTATTAGCACACATAATATTATATATG [CACACA_site8841] | 8.84 ± 0.28 |
| TATATCATTATATAAACACACAATATGTTTTTTATA [CACACA_site3781] | 8.09 ± 0.36 |
| AAAATGAACAGACACACACACATATTTATATTTATA [CACACA_site7182] | 8.57 ± 0.45 |
| TATTAATCTAATTCATAAAAAATGATCTATTTTGTT [CACACA_negctrl_site1035] | 8.01 ± 0.49 |
| ACCTAAAAGGTATAATATATAAATAAAAAAAAAAAT [CACACA_negctrl_site134] | 8.4 ± 0.59 |
| TAGAATAATCTATAAACACACAAACACAACAAAAGA [CACACA_site7861] | 9.09 ± 0.35 |
| AACATTTGATAAGATACACACACAAGGAAAAAAATA [CACACA_site8004] | 8.91 ± 0.62 |
| TTATAAAAATAATATCGTACAAATGACATAGATGAA [XGTACX_site2570] | 8.76 ± 0.42 |

| Sequence | gcPBM binding intensity (ln) |
| --- | --- |
| AGATATTTTATAATTACACACATGAGGTTATTTGAA [CACACA_site1999] | 8.32 ± 0.39 |
| CATATACATAAACACACACACACATAAATAAATATA [CACACA_site4864] | 8.68 ± 0.54 |
| ACATAAAATTGTTAAAAAATTGTATAAATAATACAT [XGTACX_negctrl_site557] | 8.12 ± 0.18 |
| TATTATTTTTTAAATTGTACAATAAATTATAAAAGG [XGTACX_site1162] | 8.41 ± 0.39 |
| TATAGGTATATATAAGTGCAATATATATGTATATAC [GTGCAC_site9427] | 8.98 ± 0.092 |
| GAAAAGCAGATAAATGTGCACATATATGTTTGTATA | 8.92 ± 0.31 |
| CAGCTCTTAAAAATTACACACATATACTCATATATA [CACACA_site5757] | 8.26 ± 0.36 |
| GGTCTTTTCAACACACGTACATAAAAATATTATACA [XGTACX_site5360] | 8.92 ± 0.37 |
| TATATATTGATATGCACACCTATGTATTGATGTATA [CACACA_site1073] | 8.56 ± 0.35 |
| TAAACATATAGAGGGGTGCAAAGAATTGTAAAATTT | 9.03 ± 0.014 |
| AATAATAATAAATATACACACATCATACAATTAACA [CACACA_site3679] | 8.73 ± 0.46 |
| TATTTTTTTCTTACTACACACATATAGATGCTTTCC [CACACA_site7825] | 8.84 ± 0.41 |
| TAATATAATATATATACACACAAGAAATACAAAACG [CACACA_site1378] | 9.01 ± 0.61 |
| ACATAAATTTAATACACACACAAAGAAAAAAAAAAA [CACACA_site4088] | 8.59 ± 0.49 |
| ATATTATTATAATATACATATATATATATAATATAT [CACACA_negctrl_site480] | 8.19 ± 0.27 |
| TATATATATAATTAAAGTACATATAACCACAAAAAT [XGTACX_site7289] | 9.09 ± 0.4 |
| TTATAAATTATAGGTACACACAAAAAAAAAAAGAAA [CACACA_site1327] | 8.72 ± 0.49 |
| ATTTGTTACACTAAATGTACATACATACATATATAT [XGTACX_site6175] | 8.77 ± 0.33 |
| ATAAACATATCAATATGTACATATTTTTGTTTGTAT [XGTACX_site7018] | 8.46 ± 0.21 |
| TTATAATAGTTAAATGTACACACTAACTACATGGAA [CACACA_site9070] | 8.62 ± 0.32 |
